Results: PubChem BioAssay AID651820 (National Center for Advancing Translational Sciences (NCATS), 2012)
The whole screen tested about 340,000 compounds, of which about 12,000 (3.5%) were called active. Inconclusive means that the source gave no clear call. Such entries were picked first, then a sample of the others. Calls follow the shape of the dose curve; as a rule, active = well fitted inhibition curve with a large enough effect; inconclusive = small, poorly fitted or top-dose-only effect, or another doubt; inactive = no such curve, though single readings can be large or run the other way. Potencies of inconclusive entries are left out as doubtful fits.

test: qHTS Assay for Inhibitors of Hepatitis C Virus (HCV); conditions: Huh7.5.1 HCVcc-Cre (HCVcc is cell-culture hepatitis C virus) infection, luciferase reporter, 44 h; activity change, negative = inhibition: at 41.8 µM (top of the series) unless noted
Procedure, shortened: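 Seed cells (1,000/well) for 4 h; treat with compound and infect with HCVcc-Cre, moi about 0.5. Incubate 44 h, then detect luciferase activity.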
% is scaled to controls: 0 for no effect and ±100 for the full control effect; potency is read from the fitted curve at half-maximal effect; tags tell the direction and shape of the fitted curve.

Structure (SMILES)	Potency	activity change, negative = inhibition
c1coc(CNc2nc3nonc3nc2NCc2ccco2)c1	inconclusive [inhibitor, partial curve]	
Cn1c2ccc(F)cc2c2nnc(SCCN3CCOCC3)nc21		inactive: 6.65%
COc1ccc(C#Cc2c(-c3ccsc3)oc3ccc(N4CCOCC4)cc23)cc1	inconclusive [inhibitor, single point]	
CCn1c(SCC(=O)NC2CC2)nnc1-c1ccc(C)cc1		inactive: 5.46%
CC(C)(C)OC(=O)N1CCC(C(=O)Nc2ccc(C(=O)N3CCCCC3)cc2)CC1		inactive: 24.1% [at 8.37 µM]
COc1ccc(-c2ocnc2C(=O)NCc2nn(-c3ccccc3)nc2C)cc1	active: 2.51 µM	
O=C(COc1ccccc1C(=O)c1cnn(-c2ccccc2)c1)Nc1ccc2ccccc2c1	active: 12.6 µM	
CCC(=O)N1CCN(c2ccccc2NC(=O)COc2ccc(C(C)C)cc2)CC1	inconclusive [inhibitor, partial curve]	
COC(=O)/C(=C\Nc1ccccc1)NC(=O)c1ccc(Cl)cc1Cl	inconclusive [inhibitor, single point]	
O=C(c1ccc(OC2CCN(Cc3ccccn3)CC2)cc1)N1CCCC(O)C1 (stereo not drawn)		inactive: 23.2%
CCOc1cc2c(cc1/C=C1/NC(=O)N(CC(=O)OC)C1=O)OCO2	active: 10 µM	
Cc1ccc(S(=O)(=O)c2c(C)cc(C)nc2N2CCOCC2)cc1	inconclusive [inhibitor, single point]	
COc1ccc(CCN(C)C(=O)COc2ccc(N(C)S(=O)(=O)c3ccc(C)cc3)cc2)cc1OC	inconclusive [inhibitor, partial curve]	
COc1ccccc1OCC(=O)Nc1ccc(S(=O)(=O)N2CCCCCC2)cc1	active: 1.58 µM	
Brc1ccc(-c2nnc(SCCC3OCCCO3)o2)cc1		inactive: 1.66%
Cc1ccc(C)n1-c1cccc(NC(=O)c2ccccc2)c1	inconclusive [inhibitor, partial curve]	
NC(=O)c1nsc(C(=O)N(c2ccccc2)C(C(=O)NC2CCCC2)c2ccncc2)c1N (stereo not drawn)	inconclusive [inhibitor, single point]	
CCc1c(C)nc2ncnn2c1N1CCCC(C(=O)NCc2ccco2)C1 (stereo not drawn)	inconclusive [inhibitor, single point]	
COc1ccc(OC)c(NC(=O)CN2CCC(C(=O)c3ccc(C)cc3)CC2)c1	inconclusive [inhibitor, single point]	
COc1cccc(C(=O)NCCS(=O)(=O)NCCCc2ccccc2)c1		inactive: 24.9%
CCN(CC)Cc1ccc(NC(=O)c2sc3cc(Cl)ccc3c2Cl)cc1	inconclusive [inhibitor, full curve]	
CCOCCCN(C(=O)CNC(=O)c1ccco1)C(C(=O)NC1CCCC1)c1cccc(OC)c1 (stereo not drawn)		inactive: 5.1%

Structure (SMILES)	Potency	activity change, negative = inhibition
Fc1ccc(NC(=S)NC2CCN(Cc3ccccc3)CC2)cc1	inconclusive [inhibitor, single point]	
COc1ccc(Cc2[nH]n3c(=O)cc(C)nc3c2-c2ccccc2)cc1		inactive: 5.47%
COc1cccc(/C=N/NC(=O)c2ccoc2C)c1O	active: 10 µM	
COc1ccc(C)cc1NC(=O)CN(C)S(=O)(=O)c1ccc2c(c1)CCCN2C(C)=O	inconclusive [inhibitor, single point]	
Cc1ccc2nc(C)c3c(c2c1)N(c1ccc(F)cc1)CC3		inconclusive: -60.3% [inhibitor]
COc1ccc(F)cc1C1=CC(=O)C[C@H](c2ccc3c(c2)OCO3)C1	inconclusive [inhibitor, full curve]	
Nc1cc[n+](CC(=O)c2ccc3c(c2)OCCO3)cc1	inconclusive [inhibitor, full curve]	
CCOc1ccc(C(O)Cn2c(=N)n(CCN3CCCCC3)c3ccccc32)cc1 (stereo not drawn)	active: 10 µM	
O=C(NNC(=O)c1cccnc1SCc1cccc([N+](=O)[O-])c1)c1ccccn1	inconclusive [inhibitor, partial curve]	
COc1ccc(-c2cc(C(=O)Nc3cc(C)n(Cc4ccc(Cl)cc4)n3)no2)cc1OC	inconclusive [inhibitor, full curve]	
COc1ccc(OC)c(NC(=O)CCN2C(=O)c3cccc([N+](=O)[O-])c3C2=O)c1		inactive: 4.2%
O=S(=O)(c1ccc2c(c1)OCCO2)N1CCC(n2nnc3cc(C(F)(F)F)ccc32)CC1	inconclusive [inhibitor, single point]	
Cn1c2c(c(=O)n(C)c1=O)C(C(F)(F)F)(C(F)(F)F)N=C(C1CCCCC1)N2	inconclusive [inhibitor, partial curve]	
Cc1ccc(O)c(N=CC2=C(O)c3ccccc3C2=O)c1	inconclusive [inhibitor, single point]	
COc1ccccc1S(=O)(=O)NCc1ccc(C(=O)N(C)Cc2ccc(F)cc2)cc1	inconclusive [inhibitor, single point]	
CC1(C)CC(=O)C2=C(C1)c1c(ccc3ccccc13)NC2c1ccco1 (stereo not drawn)	inconclusive [inhibitor, single point]	
C=C1[C@@H](O)[C@@H]2O[C@]3(CC[C@H](/C=C/[C@@H](C)[C@@H]4CC(C)=CC5(O[C@H](C[C@@](C)(O)C(=O)OC)CC[C@H]5O)O4)O3)CC[C@H]2O[C@@H]1[C@@H](O)C[C@H](C)[C@H]1OC2(CCCCO2)CC[C@H]1C (stereo partly drawn)	active: 0.562 µM	
Cc1ccc(CNS(=O)(=O)c2cc3c4c(c2)CCN4C(=O)CC3)cc1	inconclusive [inhibitor, single point]	
COc1ccc(-n2c(=S)[nH]c3cc(C(=O)Nc4cc(C(N)=O)ccc4OC)ccc3c2=O)c(OC)c1		inactive: 10.5%
C=CC[n+]1c(/C=C2\C=Cc3cc(C)ccc3N2CC)ccc2ccccc21	active: 2.51 µM	
O=C(COc1cc(O)c2c(=O)cc(-c3ccccc3)oc2c1)c1ccc(F)cc1	inconclusive [inhibitor, partial curve, poor fit]	
